In PubChem BioAssay AID1030 (National Center for Advancing Translational Sciences (NCATS), 2008):
“And” between values parts separate entries of the source, which are not always exact repeats. Equal values may be shown once. The campaign covered roughly 220,000 compounds. About 16,000 (7.3%) were called active. Inconclusive means that the source gave no clear call. Such entries were picked first, then a sample of the others. Calls follow the shape of the dose curve; as a rule, active = well fitted inhibition curve with a large enough effect (not every such curve was filed as active); inconclusive = small, poorly fitted or top-dose-only effect, or another doubt; inactive = no such curve, though single readings can be large or run the other way. Potencies of inconclusive entries are doubtful fits and often do not repeat.

Biological target: Aldehyde dehydrogenase 1A1 (Homo sapiens) (UniProt P00352)
Chain of UniProt P00352 (P00352 whole entry, looked up): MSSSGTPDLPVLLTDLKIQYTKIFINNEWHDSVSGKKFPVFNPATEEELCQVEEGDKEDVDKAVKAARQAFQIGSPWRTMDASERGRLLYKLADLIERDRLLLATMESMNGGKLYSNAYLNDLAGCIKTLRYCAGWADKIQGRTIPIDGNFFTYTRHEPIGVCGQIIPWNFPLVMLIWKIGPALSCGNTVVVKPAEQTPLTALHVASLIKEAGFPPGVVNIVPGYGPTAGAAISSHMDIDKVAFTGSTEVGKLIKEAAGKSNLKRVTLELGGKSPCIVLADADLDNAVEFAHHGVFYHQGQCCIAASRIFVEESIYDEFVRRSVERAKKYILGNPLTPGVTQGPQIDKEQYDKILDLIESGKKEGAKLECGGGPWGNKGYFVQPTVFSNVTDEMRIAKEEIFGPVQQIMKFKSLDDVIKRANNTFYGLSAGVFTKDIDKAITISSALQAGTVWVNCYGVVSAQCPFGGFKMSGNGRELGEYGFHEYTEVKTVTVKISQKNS
Test: qHTS Assay for Inhibitors of Aldehyde Dehydrogenase 1 (ALDH1A1);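 as to activity, negative = inhibition: plate controls were no enzyme wells and a reference inhibitor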
Conditions: Purified ALDH1A1, NADH fluorescence, propionaldehyde substrate; series mostly up to 75.3 µM; activity, negative = inhibition: at the top concentration
Potency is read from the fitted curve at half-maximal effect; tags tell the direction and shape of the fitted curve.

| SMILES | Potency | activity, negative = inhibition |
| --- | --- | --- |
| Cc1cc(-c2nnc(SCC(=O)c3ccc4c(c3)OCCO4)o2)no1 | inconclusive: 0.282 µM [inhibitor, partial curve, poor fit] | – |
| C=C(C)C(=O)/C=C/C=C/c1ccccc1 | – | inactive: -0.933% |
| NC(N)=NS(=O)(=O)c1ccc(N=C2C(=O)Nc3ccccc32)cc1 | inconclusive: 25.1 µM [inhibitor, partial curve] | – |
| COC(=O)CSc1nc(-c2ccc(C)cc2)c2c(c1C#N)CCCC2 | inconclusive: 25.1 µM [inhibitor, partial curve] | – |
| COc1ccc(C2=NOC(C(=O)N3CCCc4ccccc43)C2)cc1 (centres undefined) | active: 12.6 µM | – |
| Cc1cc(C)n(-c2nc3c(c(=O)[nH]c(=O)n3C)n2CC(O)c2ccccc2)n1 (centres undefined) | inconclusive: 39.8 µM [inhibitor, single point] | – |
| COc1ccc(CCNC(=O)c2cc(-c3cc(C)ccc3O)n[nH]2)cc1OC | – | inactive: 2.28% |
| CCCCNC(=O)C(C#N)c1nc2ccccc2nc1N1CCCC1 (centres undefined) | inconclusive: 39.8 µM [inhibitor, single point] | – |
| Cc1cc(/C=N/n2cnnc2)c(O)c([N+](=O)[O-])c1 | – | inactive: -5.9% |
| CCOc1ccc(Oc2c(/C=N/NC(=O)COc3ccccc3OC)c(C)nn2-c2ccccc2)cc1 | inconclusive: 12.6 µM [inhibitor, partial curve] | – |
| COCCSc1nnc(NS(=O)(=O)c2ccccc2)s1 | inconclusive: 28.2 µM [inhibitor, single point] | – |
| CCNc1ncc2ncc(=O)n(Cc3cccc(OC)c3)c2n1 | inconclusive: 28.2 µM [inhibitor, partial curve] | – |
| CCOC(=O)CSC1=C(C#N)C(c2ccc(Cl)cc2)CC(=O)N1 (centres undefined) | – | inactive: 1.71% |
| COc1c(-c2coc3cc4c(cc3c2=O)CC(O)C(C)(C)O4)ccc2c1C=CC(C)(C)O2 (centres undefined) | inconclusive: 12.6 µM [inhibitor, partial curve] | – |
| O=c1[nH]c(CN2CCOCC2)nc2scc(-c3ccccc3)c12 | – | inactive: -2.99% |
| O=C(O)C(c1ccccc1)N1CCCCC1 (centres undefined) | – | inactive: -2.7% |
| C=CCc1ccc(OCCN2CCc3ccccc3C2)c(OC)c1 | inconclusive: 20 µM [inhibitor, partial curve] | – |
| O=c1c(-c2ccco2)[n+]([O-])c2ccccc2n1OCc1ccccc1F | inconclusive: 25.1 µM [inhibitor, single point] | – |
| CC1(C)Nc2ccccc2C(=O)N1NS(=O)(=O)c1ccccc1 | inconclusive: 5.62 µM [inhibitor, full curve] | – |
| CC(C)C[C@@H](CC(=O)N[C@H](CC(=O)N[C@@H]1CCNC[C@H]1C(=O)N[C@H](CC(=O)N[C@@H](CCC(=O)O)CC(=O)O)CC(C)C)C(C)C)NC(=O)[C@@H]1CCCC[C@H]1N | inconclusive: 39.8 µM [inhibitor, single point] | – |
| Fc1cc2[nH]c(=S)[nH]c2cc1Cl | active: 31.6 µM | – |
| COc1ccccc1N1CCN(c2ccc([N+](=O)[O-])cc2Cl)CC1 | inconclusive: 17.8 µM [inhibitor, partial curve] | – |
| O=C(NN=C(Cc1ccccc1)Cc1ccccc1)c1ccc(F)cc1 | inconclusive: 39.8 µM [inhibitor, single point] | – |

| SMILES | Potency | activity, negative = inhibition |
| --- | --- | --- |
| O=C(CCCSc1nc2ccccc2s1)NCc1ccco1 | inconclusive: 39.8 µM [inhibitor, single point] | – |
| c1coc(-c2nc3ccccc3nc2-c2ccco2)c1 | inconclusive: 11.2 µM [inhibitor, partial curve] | – |
| N/C(Cc1ccc([N+](=O)[O-])cc1)=N\OC(=O)c1ccc([N+](=O)[O-])cc1 | inconclusive: 39.8 µM [inhibitor, single point] | – |
| COc1cc(C)c(NC(=S)Nc2cccc(Cl)c2C)cc1OC | inconclusive: 25.1 µM [inhibitor, single point] | – |
| O=C(O)CCCNC(=O)CC1S/C(=N/N=C/c2ccccc2O)NC1=O (centres undefined) | – | inactive: 5.06% |
| Fc1cccc(F)c1-n1c(CN2CCOCC2)csc1=S | inconclusive: 25.1 µM [inhibitor, single point] | – |
| Cc1ccc2nc(N3CCN(Cc4nnnn4C4CCCC4)CC3)c(C#N)cc2c1 | inconclusive: 31.6 µM [inhibitor, single point] | – |
| COC(=O)CCN(C1CCCCC1)S(=O)(=O)c1ccc(S(=O)(=O)N2CCCCC2)cc1 | active: 1.78 µM | – |
| CC(Sc1nnc(NC2CCCCC2)s1)C(=O)Nc1ccc2c(c1)C(=O)c1ccccc1C2=O (centres undefined) | active: 25.1 µM | – |
| O=C(CC1(O)C(=O)Nc2cc(Cl)cc(Cl)c21)c1ccccc1O (centres undefined) | inconclusive: 15.8 µM [inhibitor, partial curve] | – |
| CCOC(=O)N1CCN(C(=O)Nc2ccc3nc(C)sc3c2)CC1 | inconclusive: 28.2 µM [inhibitor, partial curve] | – |
| O=S(=O)(c1ccccc1)c1ncc(C(F)(F)F)cc1O | inconclusive: 39.8 µM [inhibitor, single point] | – |
| COC(=O)c1ccc2c(=O)n(CCCCCC(=O)N3CCN(c4ccccc4)CC3)c(=O)[nH]c2c1 | inconclusive: 39.8 µM [inhibitor, single point] | – |
| O=C(CCN1C(=O)c2ccccc2C1=O)NC(=S)Nc1ccccc1Cl | active: 22.4 µM | – |
| CCCn1nc(C(=O)Nc2cccc(C(=O)OC)c2)c2ccccc2c1=O | active: 4.47 µM | – |
| COC(=O)/C(=C\c1ccc(O)cc1)c1nc2ccccc2[nH]1 | active: 11.9 µM | – |
| CN(C(=O)COC(=O)CNC(=O)c1sc2ccccc2c1Cl)c1ccccc1 | inconclusive: 25.1 µM [inhibitor, single point] | – |
| CC1CCN(C(=O)CSc2nnc(-c3cccnc3)n2C2CCCCC2)CC1 | inconclusive: 12.6 µM [inhibitor, partial curve] | – |
| COc1ccccc1CNC(=O)CSc1ccc(-c2cccs2)nn1 | inconclusive: 20 µM [inhibitor, partial curve] | – |
| CCOC(=O)c1[nH]c(COC(=O)C2CC(=O)N(Cc3ccccc3)C2)c(C(=O)OCC)c1C (centres undefined) | active: 39.8 µM | – |
| O=C(Nc1ccccc1)C1=C[C@@H](C2CCCCC2)C[C@@H](OCCCCO)O1 | inconclusive: 31.6 µM [inhibitor, single point] | – |
| Cc1ccc(F)cc1NC(=O)c1ccc2c(c1)OCO2 | inconclusive: 39.8 µM [inhibitor, single point] | – |
| COc1ccc(OC)c(NS(=O)(=O)c2ccc3c(c2)CCC(=O)N3)c1 | inconclusive: 20 µM [inhibitor, single point] | – |

| SMILES | Potency | activity, negative = inhibition |
| --- | --- | --- |
| CCOc1ccc(C(=O)CCNC(Cc2cnc[nH]2)C(=O)O)cc1 (centres undefined) | active: 1.58 µM | – |
| COc1ccc(COc2cc(-c3cccc(OC)c3)nc3ccc(NC(=O)c4ccc(Cl)cc4)cc23)cc1 | inconclusive: 31.6 µM [inhibitor, partial curve] and inconclusive: 11.2 µM [inhibitor, partial curve] | – |
| Cc1ccc(S(=O)(=O)N2CCCCC2)cc1NC(=O)COC(=O)c1ccc2c(c1)OCO2 | inconclusive: 35.5 µM [inhibitor, single point] | – |
| Cc1ccc(-n2ccc(=O)c(-c3ccnc(SCc4cccc(Cl)c4)n3)n2)cc1 | inconclusive: 35.5 µM [inhibitor, single point] | – |
| COc1ccc(S(=O)(=O)NCC2CCC(C(=O)N3CCC4(CC3)OCCO4)CC2)cc1 (centres undefined) | – | inactive: -10.9% |
| Cc1cccc(Nc2ncnc3nc[nH]c23)c1 | – | inactive: 7.6% |
| O=C(Nc1ccc2[nH]c(=O)[nH]c2c1)c1c(F)c(F)c(F)c(F)c1F | inconclusive: 39.8 µM [inhibitor, single point] | – |
| CCCc1cc(Nc2c(C)n(C)n(-c3ccccc3)c2=O)n2c(nc3ccccc32)c1C#N | inconclusive: 7.94 µM [inhibitor, full curve] | – |
| COc1ccc(CCN(Cc2cccs2)S(=O)(=O)c2ccc(-n3cnnn3)c(OC)c2)cc1OC | inconclusive: 39.8 µM [inhibitor, single point] | – |
| O=C(Cc1cccs1)N1CCN=C1SCc1ccc(F)cc1 | inconclusive: 29.9 µM [inhibitor, single point] | – |
| CCOC(=O)CSc1[nH]c(=O)cc(C)c1C#N | – | inactive: 5.35% |
| O=C(c1ccco1)N1CCN(C(=O)c2ccc(COc3ccc4c(c3)CCC4)o2)CC1 | active: 28.2 µM | – |
| CCOc1cc(/C=N/NS(=O)(=O)c2ccc(OC)cc2)ccc1OCCN1CCOCC1 | inconclusive: 39.8 µM [inhibitor, single point] | – |
| Cc1cc(C)n2cc(CSc3nc4cc(Cl)ccc4o3)nc2n1 | inconclusive: 22.4 µM [inhibitor, single point] | – |
| COc1ccc(NC2=NC(=S)N(c3ccccc3C)C23CCCCC3)cc1 | – | inactive: -12.7% |
| Cc1cc(C)c2[nH]c(=O)c(C(c3nnnn3C(C)(C)C)N3CCN(C(=O)c4ccco4)CC3)cc2c1 (centres undefined) | inconclusive: 39.8 µM [inhibitor, single point] | – |
| Cc1cc(Cl)ccc1OCCCC(=O)OCC(N)=O | – | inactive: 5.45% |
| CCCC[C@@H]1C[C@H]1C(NC(=O)c1ccc(C(F)(F)F)cc1)c1ccc(C(=O)OC)cc1 (some centres undefined) | inconclusive: 35.5 µM [inhibitor, single point] | – |
| CCCNCC1COc2ccccc2O1 (centres undefined) | – | inactive: 11.7% |
| CSc1ccccc1Sc1cc(C(=O)O)c2ccccc2n1 | – | inactive: 6.59% |
| CC1=NN(C(=O)c2csc(C(C)C)c2)C(O)(C(F)(F)F)C1 (centres undefined) | – | inactive: -14.6% |
| Cc1ccc(N2C(=O)C3C(C2=O)N2CCCN2C3c2ccccc2)cc1C (centres undefined) | – | inactive: -3.94% |
| O=C(/C=C/c1ccc(O)c(O)c1)c1ccc(S(=O)(=O)N2CCCCCC2)cc1 | inconclusive: 25.1 µM [inhibitor, single point] | – |
